The test system of the data set is ATP. Put plainly: switch fluorescence ratio, 500 uM ATP over buffer (Cy3 cluster intensity, sum of 5 cycles each) (fold (ratio)); higher = stronger signal-on switching upon ATP binding; sequences stand for … in TCGTCGGCAGCGTCAGATGTGTATAAGAGACAGTTTTTTTTTTTTTTTTTTTTTTTTT…TC. The settings on record: aptamer strand: ATP DNA aptamer (quencher-CACCTGGGGGAGTATTGCGGAGGAAGG + anchor), 100 nM annealed; ATP concentration: 500 uM; one replicate. The method in brief: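 For every switch-domain sequence, the fluorescence ratio is the mean of per-cluster values, each being summed target-cycle Cy3 intensity over summed buffer-cycle Cy3 intensity. Clusters outside 100-1000 RFU were excluded. On a modified Illumina MiSeq flow-cell, the Cy3-labelled switching-strand clusters were annealed to 100 nM quencher-labelled ATP aptamer, imaged in selection buffer and then after 15 min with 500 uM ATP at 22 °C. Five such cycles were run, with NaOH stripping and re-annealing between them.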

Sequences with one replicate were seen in a single cluster, so their values are uncertain.
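Also: ATP exposure 15 min at 22 °C before imaging.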

Take GACATTTGCT: the switch fluorescence ratio is 1.06. For CTCGAGCCAA the value was 1.33; for CCGGGTCATC, 1.26. The figure for TATGACGATT is 0.976; for CGGTAACAGA it is 1.02. The figure for ATCTAATTCA is 0.967. Consider CCTGCACCGG, for which the switch fluorescence ratio is 1.07. The figure for AATTTTAAA is 0.979; for GCCTGCAAGC it is 1.25. The figure for GTCGCACGGC is 0.962. The figure for CAGTAGGTTT is 1.03; for GAGGTGATTG it is 0.984; for GTGATTTCAG it is 1.02. Regarding GTAAGTGTGC, the switch fluorescence ratio is 1.01.

GACACCGATT: the switch fluorescence ratio came out at 1.07. The figure for AGAGGCAG is 0.955; for CTACCCAGGA it is 1.3. For GCCCACTCCT the value was 1.02; for TCCTCAAGGT, 1.49; for GTTCGCAGGA, 0.964. For TATAATTCCG the value was 0.989. GTAAACGGAG: the switch fluorescence ratio turned out to be 1.04.

Take CCAAATAACG: the switch fluorescence ratio turned out to be 1.05. The figure for GTGGTGTCTA is 0.973. For TCCCGTTCTT the value was 0.996; for GGTTAATGAG, 0.991. The figure for TCTGAATTGA is 0.987; for TGGCCACGCA it is 1.03. Take TTTGTAACCC: the switch fluorescence ratio stood at 1.21. For TAGTCTGGA the value was 1.03. The figure for CATACCAGTT is 1.01; for CTCGGTACCC it is 1.05; for TAGACGGCCA it is 1.04. With CAGGAAACCG, the switch fluorescence ratio is 1.04. For CTCGATTTTA the value was 1.02; for TGCTAACGGG, 1.01; for GTTGCATTCC, 1.52.

For the sequence GATGTCTAAA, the switch fluorescence ratio worked out at 0.985. The figure for TATGCTACCG is 1.05; for CGTATTCCGC it is 1.16. The figure for TAGGAACTTC is 1.02; for TATAACAGTT it is 1.17. The figure for AGTCTCACCC is 1.

For ATTTCGGCCG, the switch fluorescence ratio is 0.989. With TAGTTTGGAG, the switch fluorescence ratio stood at 0.998. On to TGCGTCTTAC, for which the switch fluorescence ratio is 1.02. Consider GGTTTTTTT, for which the switch fluorescence ratio was 0.979. The figure for TCCTAATCTT is 1.03; for TTCGCATGTA it is 1.03; for TACGCATAA it is 2.27. The figure for AATGCTCACT is 0.984; for TTGATGACAT it is 1.04. The figure for TACTTATTG is 0.993; for TTAAAATCAT it is 0.992; for GGTCTATGAT it is 1.01. For the sequence CGTGTGGAAC, the switch fluorescence ratio amounted to 0.988. The figure for AATTTCGAC is 1.06; for TGTCTGTTTT it is 1.03. For CGGGCAGCAA the value was 3.4. As to CATGCATAAC, the switch fluorescence ratio was found to be 2.03. TTACGGCCCC: the switch fluorescence ratio turned out to be 1.08.

For the sequence CTGAGAGGTC, the switch fluorescence ratio stood at 1.01.

CCCGGCTGCC: the switch fluorescence ratio amounted to 1.04. For GTGGTCATGG the value was 0.978; for GATTGGGATC, 0.96. The figure for GTGGACTCGT is 1.02; for AGGTCCAGGG it is 1.14; for AGAGGACGCA it is 1.28. For GATGCAATGT the value was 3.35; for TACGGGAAAG, 1.06; for CACGCTGACA, 1.3. Consider AGGGAAGATC, for which the switch fluorescence ratio worked out at 0.934.

Turning to GGCTATGGAA, the switch fluorescence ratio stood at 1.05. For ACTTACTAT the value was 1.13; for AGCACCATGA, 1.02; for CCAGACTTGG, 0.981. GATGTACAGC: the switch fluorescence ratio was found to be 0.964.

For the sequence CTAGGTTGAA, the switch fluorescence ratio was determined as 0.959.

For TTATGGGACG, the switch fluorescence ratio was determined as 1.11.

With ATGAAAATAA, the switch fluorescence ratio is 0.955. For ACATTGGGAC the value was 1.1; for CGGCCAGCCG, 1.04; for TACATTGGAG, 0.989. As for AAGATCGTGC, the switch fluorescence ratio was found to be 0.988. The figure for TGAAGGTTT is 0.988; for CGAGATACTG it is 1.13.

For ACTGGTACTT, the switch fluorescence ratio stood at 1.12. For CACGTGCCCT the value was 1.04; for GCGCCTAACT, 1.04; for GGTTCGTATG, 0.956. For CGAAGTCCAA the value was 1.25. The figure for CCGTTGTCGG is 0.932. Turning to GCCGAAGGCT, the switch fluorescence ratio came to 1. For TACCCTTTTC the value was 1.05. For TATTAGTCA the value was 0.995.

For AGATGATTAA, the switch fluorescence ratio turned out to be 1.02. As to CGTTCTCTCA, the switch fluorescence ratio worked out at 1.01. For GGGGGTAACA the value was 0.999; for ATTGCGAGGA, 0.953; for CTAGCATGG, 1.05. For CATTTACAAC the value was 1; for AATGTAGTAT, 0.974.

Take GTATGACGGG: the switch fluorescence ratio is 1.02.

As for CTTACCCGCT, the switch fluorescence ratio is 3.52.

For TAAGGATTTT, the switch fluorescence ratio amounted to 0.965. The figure for TCGAGTTGAT is 1.07; for AAGAACTTAT it is 1.01.

For GCCACGTGTT, the switch fluorescence ratio was determined as 0.981. On to GGGATGTTGC, for which the switch fluorescence ratio came to 1.05. For TATAATTGTA the value was 0.998; for TTTGCGGCGC, 1.01. For TCTTAGGAGC the value was 1.05; for ACGATTGAAA, 1.01; for CTAAAGCCGG, 0.974. For TGGCTAGAAA, the switch fluorescence ratio was 0.995. With AAGCTAGGAT, the switch fluorescence ratio is 0.982. TGTGCGATTG: the switch fluorescence ratio is 0.992.

For TTGTGTTT, the switch fluorescence ratio was 1.03. For ATAGATAATT the value was 0.987; for TGTAGCCCGA, 1.02.
